Results from patent publication US9822170B2, “Co-use of a clusterin inhibitor with an EGFR inhibitor to treat cancer” (ALETHIA BIOTHERAPEUTICS INC., priority 2012, dated 2017).

Columns and labels:
Format in all cases: cell-based, human
[1] = test system: A549 cells; experiment: E-cadherin cell-surface immunofluorescence; settings: 10 μg/ml, 48 h, versus control IgG
Method: We also examined the expression of E-cadherin by monitoring its expression on the surface of A549 cells using immunofluorescence. Briefly, the cells were seeded on coverslips and incubated with either a control IgG or h16B5 at 10 μg/ml for 48 h. Following this incubation, the cells were fixed with paraformaldehyde and incubated with a mouse anti-human E-cadherin antibody (manufacturer) for 1 h. After washing, the E-cadherin stained cells were incubated with a secondary antibody conjugated to Rhodamine Red-X. The slides were mounted and specific E-cadherin staining was visualized by fluorescence microscopy.

[2] = test system: EGFR in H226 cells; experiment: EGFR tyrosine phosphorylation by Western blot after EGF treatment; settings: 10 μg/ml for 48 h, then EGF 10 ng/ml, versus untreated
Method: (§1) In order to address this question, conditions were optimized to measure the expression and phosphorylation of the receptor in these cells. EGFR is known to be phosphorylated very rapidly following exposure to its ligands, including EGF. In parallel with this phosphorylation, the receptor is internalized and recycled and its presence is lost from the cell surface. Two cell lines, A549 and H226, which secreted relatively high levels of sCLU were selected for this analysis. The cells were seeded in multi-well plates and treated for 48 h with 10 μg/ml h16B5, 10 μg/ml control IgG or the vehicle, PBS. Following this incubation, the cells were treated with EGF (10 ng/ml) and the cells were harvested at different times and converted to lysates. These lysates were electrophoresed by SDS-PAGE, the proteins transferred to a nylon membrane and used in Western blots to examine the expression or phosphorylation of EGFR. To measure the expression of EGFR, a commercial antibody designated clone 1005 (Santa Cruz, Biotech, Santa Cruz, Calif.) was used whereas the phosphorylation of EGFR was monitored with an anti-phosphotyrosine antibody designated clone 4G10 (Millipore, Etobicoke, ON). […]
(§2) The activation of EGFR in these cells was also examined. […] However, when the cells were treated with EGF, the appearance of phosphorylated tyrosine residues was detected, even after 2 min (upper panel, lane 2 and lane 6). […]

[3] = test system: EGFR in A549 cells; experiment: as above; settings: 10 μg/ml for 48 h, then EGF 10 ng/ml, versus untreated and control IgG
Method: as §1, §2

[4] = test system: EGFR in H226 cells; experiment: EGFR expression by Western blot after EGF treatment; settings: 10 μg/ml for 48 h, then EGF 10 ng/ml, versus control
Method: as §1

[5] = test system: EGFR in A549 cells; experiment: as above; settings: 10 μg/ml for 48 h, then EGF 10 ng/ml, versus vehicle
Method: as §1

B1: h16B5: humanized form of anti-clusterin antibody 16B5; heavy chain SEQ ID NO.:9, light chain SEQ ID NO.:10 (antibody)
heavy: QVQLVQSGAEVKKPGATVKISCKVSGFNIKDIYMHWVQQAPGKGLEWMGRIDPAYGNTKYDPKFQGRVTITADTSTDTAYMELSSLRSEDTAVYYCARRYDTAMDYWGQGTLVTVSSASTKGPSVFPLAPCSRSTSESTAALGCLVKDYFPEPVTVSWNSGALTSGVHTFPAVLQSSGLYSLSSVVTVPSSNFGTQTYTCNVDHKPSNTKVDKTVERKCCVECPPCPAPPVAGPSVFLFPPKPKDTLMISRTPEVTCVVVDVSHEDPEVQFNWYVDGVEVHNAKTKPREEQFNSTFRVVSVLTVVHQDWLNGKEYKCKVSNKGLPAPIEKTISKTKGQPREPQVYTLPPSREEMTKNQVSLTCLVKGFYPSDIAVEWESNGQPENNYKTTPPMLDSDGSFFLYSKLTVDKSRWQQGNVFSCSVMHEALHNHYTQKSLSLSPGK
light: DIVMTQSPDSLAVSLGERATINCKSSQSLLNSRTRKNYLAWYQQKPGQPPKLLIYWASTRESGVPDRFSGSGSGTDFTLTISSLQAEDVAVYYCKQSYNLWTFGQGTKLEIKVAAPSVFIFPPSDEQLKSGTASVVCLLNNFYPREAKVQWKVDNALQSGNSQESVTEQDSKDSTYSLSSTLTLSKADYEKHKVYACEVTHQGLSSPVTKSFNRGEC
modifications: Complete heavy chain immunoglobulin sequence for h16B5; Complete light chain immunoglobulin sequence for h16B5
intensity of E-cadherin staining on the cell surface [1]: marked increase in the intensity of E-cadherin staining | EGFR tyrosine phosphorylation after EGF [2]: difference in the phosphorylation of EGFR was reproduced | EGFR tyrosine phosphorylation after EGF [3]: higher amount of phosphorylated tyrosine residues on the EGFR | EGFR expression after EGF [4]: no decrease in EGFR was seen | EGFR expression after EGF [5]: protected the cells from the EGF-induced degradation of the receptor
